Measurements as given in PubChem BioAssay AID1347073 (National Center for Advancing Translational Sciences (NCATS), 2019).
About 200 (0.44%) of roughly 45,000 compounds were called active. Not shown: some 7% with an inconclusive outcome. The call rests on the fitted dose curve; in most records, active means well fitted activation curve with a large enough effect; inconclusive means small, poorly fitted or top-dose-only effect; inactive means no such curve, though single readings can be large or run the other way. Some of the results follow.

Test: qHTS of TDP-43 Inhibitors: NCGC Sytravon Library Screen; further: nearly all actives have a fitted effect of over 55% in size; on growth rescue (activation): 0% is about no effect
Details: yeast TDP-43 toxicity rescue, BacTiter-Glo growth, 24 h; series mostly up to 46.1 µM; growth rescue (activation): at the top concentration
Procedure, shortened: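 TDP-43-expressing yeast, pregrown in raffinose, seeded at OD600 0.02 in galactose medium with compound for 24 hr at 30 deg C. Growth read by BacTiter-Glo luminescence, so rescue of toxicity appears as activation.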
Potency means the concentration at half of the fitted maximal effect.

SMILES	growth rescue (activation)	Potency
Cc1ccc(C(=O)NCCNC(=O)c2ccc(C)nc2)cc1	inactive: 0.716%	–
COc1ccc(N(C)C(=O)C2CCN(S(=O)(=O)c3cccc4nonc34)CC2)c(OC)c1	inactive: 14%	–
CC1c2nc3ccccc3n2C(CC(=O)NCCCN2CCOCC2)C(=O)N1Cc1ccccc1 (configuration not stated)	inactive: 10%	–
O=C(O)CNS(=O)(=O)c1ccc2c(c1)CCCC2	inactive: 19.4%	–
COc1cc(Cl)cc(/C=C/c2ccc3ccccc3n2)c1OC(C)=O	–	active: 12.6 µM
Clc1ccccc1OCCNc1nc(NCC2CC2)nc2ccsc12	inactive: 9.6%	–
CC(C)C(=O)Nc1cccc(NC(=O)c2cccc(Br)c2)c1	inactive: 6.23%	–
COc1ccc(CSc2ncn[nH]2)cc1[N+](=O)[O-]	inactive: 8.32%	–
COc1ccc(OC)c(Nc2nc3nonc3nc2N2CCCC(C)C2)c1 (configuration not stated)	inactive: -3.85%	–
CC(NC(=O)CSc1n[nH]c(N)n1)c1ccccc1 (configuration not stated)	inactive: 5.45%	–
COc1ccc(OC)c(NC(=O)/C=C/c2ccccc2[N+](=O)[O-])c1	inactive: 32.1%	–
CS(=O)(=O)N1CCN(c2ccc(NC(=O)CSc3nnc(-c4ccco4)o3)cc2)CC1	inactive: 7.83%	–
Cc1ccc(C(=O)C[n+]2ccccc2)cc1	inactive: 14.9%	–
O=C1CN(C(=O)COc2ccc(Cl)cc2Cl)c2ccccc2N1	inactive: 16.8%	–
COc1ccc(NC(C)C(=O)N/N=C/c2c(O)ccc3ccccc23)cc1 (configuration not stated)	inactive: -4.61%	–
CCC(=O)N(C)CCc1cc2c(c(OC)c1/C=N/NC(=O)c1ccc(Br)cc1)OCO2	inactive: 1.22%	–
COc1ccccc1CNC(=O)Cn1c(=O)oc2cc(Cl)ccc21	inactive: -7.39%	–
CCOC(=O)CON1C(=O)C(=O)N(OCC(=O)OCC)[C@H]2CCCC[C@H]21	inactive: 1.49%	–
O=C(Nc1ccccc1F)c1ccc(OCc2ccccc2)cc1	inactive: -8.86%	–
COc1ccc(C2CCCN2C(=S)Nc2ccccc2C)cc1OC (configuration not stated)	inactive: 20.9%	–
Cc1ccc(S(=O)(=O)N2CCCCC2)cc1C(=O)OCC(=O)NC(=O)NC12CC3CC(CC(C3)C1)C2	inactive: 34.9%	–
Cc1csc(NC(=O)c2cc[n+]([O-])cc2)n1	inactive: -14.4%	–

SMILES	growth rescue (activation)	Potency
Cc1cccc(N2C(=O)CC(SC(N)=Nc3ccccc3)C2=O)c1 (configuration not stated)	inactive: 1.96%	–
Cc1cc(C(=O)N/N=C/c2ccccc2)c(C)o1	inactive: 6.57%	–
CCC(C)[C@H](NC(=O)Nc1ccc(S(N)(=O)=O)cc1)C(=O)OC (some centres not stated)	inactive: 23.5%	–
CC(C)CC1CCCCC1OC(=O)C[N+]1(C)CCCCC1 (configuration not stated)	inactive: 5.74%	–
Cc1ccc(CN(C)CC(=O)Nc2ccc3c(c2)CCC3)cc1	inactive: 5.92%	–
NC(=O)CCN1CCN(S(=O)(=O)/C=C/c2ccccc2)CC1	inactive: -14.4%	–
Cc1cccc(NC(=S)NC(=O)c2ccc(-c3ccccc3)cc2)n1	inactive: 4.77%	–
CC(C)c1ccc(CC(=O)N2CCC2(C)C(=O)NCC(C)(C)C)cc1 (configuration not stated)	inactive: 13%	–
CC(=O)c1ccc(N2CCN(C(=O)c3cc(S(=O)(=O)N4CCOCC4)ccc3C)CC2)cc1	inactive: 11.8%	–
Cc1cc(C(C)(C)C)cc(C)c1CCNC(=O)c1c(C)noc1C	inactive: 15.7%	–
CCOC(=O)N1CCN(C(=O)COC(=O)Cc2ccc(Cl)cc2)CC1	inactive: 5.63%	–
Cc1cc(C)c(C#N)c(SCC(=O)Nc2ccccc2C)n1	inactive: 16.9%	–
O=C1CC(N2CCC(c3nc4ccccc4o3)CC2)C(=O)N1c1ccc(F)cc1 (configuration not stated)	inactive: -4.73%	–
Cc1ccc(NC(=O)Cn2nnc(-c3ccc4c(c3)OCO4)n2)cc1F	inactive: 0.0498%	–
COc1ccccc1CN1C(=O)C(=O)c2cccc(C)c21	inactive: -6.75%	–
Cc1cc(C)n(-c2ccc(C(=O)NCc3ccc(F)cc3)cc2)n1	inactive: 37.5%	–
COc1ccc(N2CCN(C(=O)CSc3ncnc4c3cnn4-c3ccc(OC)cc3)CC2)cc1	inactive: 0.18%	–
O=C(O)CNS(=O)(=O)/C=C/c1ccccc1	inactive: -7.37%	–
COc1ccc(N(CC(=O)NCCSc2ccccc2)S(=O)(=O)c2ccccc2)c(OC)c1	inactive: -0.0116%	–
COc1ccc(CCNC(=O)CSc2nnc(Cc3cccn3C)n2C)cc1OC	inactive: -10.2%	–
CCOc1ccc(C2C(C#N)=C(N)N(N(C)C)C3=C2C(=O)CC(C)(C)C3)cc1 (configuration not stated)	inactive: -14.7%	–
Cc1ccc2c(c1)cc(CN(C(=O)N1CCOCC1)C1CCCC1)c1nnnn12	inactive: 9.06%	–

SMILES	growth rescue (activation)	Potency
Cc1cc(C)cc(C(=O)NCC(=O)N2CCN(C(c3ccccc3)c3ccccc3)CC2)c1	inactive: -3.49%	–
CCCCN(C=O)c1c(CC)nc2ccc(C(=O)N3CCCCC3)cn12	inactive: -5.08%	–
CCS(=O)(=O)N1CCCC(C(=O)NCc2cccc(OC)c2)C1 (configuration not stated)	inactive: 0.884%	–
O=C(CSc1ncccn1)N1CCN(S(=O)(=O)c2ccccc2)CC1	inactive: 0.149%	–
O=c1[nH]c(-c2cccnc2)nc2sc(-c3ccccc3)cc12	inactive: -6.66%	–
COc1ccc(CN(C)Cc2c(O)ccc3cc(Br)ccc23)cc1OC	inactive: -9.63%	–
COc1ccc(N2CCN(c3nc4cc(C)ccc4cc3C=O)CC2)cc1	inactive: 21.9%	–
OCCC1CN(Cc2cccn2-c2cccnc2)CCN1CCc1ccccc1 (configuration not stated)	inactive: 2.96%	–
COc1ccc(N2CCN(c3nccs3)CC2)cc1	inactive: 2.34%	–
COc1ccc(/C(N)=N/OC(=O)C2CCC(=O)N2S(=O)(=O)c2ccc(C)cc2)cc1OC (configuration not stated)	inactive: 9.24%	–
O=C(c1cc(-c2ccccn2)nc2ccc(Br)cc12)N1CCN(S(=O)(=O)c2ccccc2)CC1	inactive: 2.56%	–
CN1CCCC(OC(=O)CCCCC(=O)OC2CCCN(C)C2)C1 (configuration not stated)	inactive: -23.1%	–
CCCc1cc(=O)[nH]c(SCC(=O)Nc2cc(S(=O)(=O)N3CCOCC3)ccc2N(CC)CC)n1	inactive: 13.2%	–
Cc1cc(C)nc(N2CCCC(C(=O)Nc3ccc(F)cc3)C2)n1 (configuration not stated)	inactive: 5.04%	–
Cc1c(Cl)cccc1NC(=S)NC(=O)CCN1C(=O)c2ccccc2C1=O	inactive: 13.3%	–
CC1CCN(S(=O)(=O)c2ccc(NC(=O)CN3CCCCCC3)cc2)CC1	inactive: -15.3%	–
CCC1CCCCN1C(=O)Cn1nc([N+](=O)[O-])c(Cl)c1C (configuration not stated)	inactive: 5.74%	–
CCN(CC)C(=O)c1cccc(-c2csc(C(NC(C)=O)c3cccc(OC)c3)n2)c1 (configuration not stated)	inactive: 12.1%	–
Cc1ccc(C)c(NC(=O)c2cc(-c3ccccc3)nn2-c2ccccc2)c1	inactive: -1.8%	–
CC(NC(=O)c1ccccc1)c1ccc(F)cc1 (configuration not stated)	inactive: 1.51%	–
COC(=O)c1ccc(CN2C(=O)NC3(CCCCC3C)C2=O)o1 (configuration not stated)	inactive: 3.06%	–
Cc1ccc(C(=O)NNS(=O)(=O)c2ccc(F)cc2)cc1	inactive: 8.7%	–

SMILES	growth rescue (activation)	Potency
CC(C)N1CCN(Cc2ccsc2)CC1CCO (configuration not stated)	inactive: -6.04%	–
CCN(CC)S(=O)(=O)c1ccc(N2CCOCC2)c(NC(=O)Cc2ccc(Cl)cc2)c1	inactive: 8.74%	–
CC(C)[C@H](NC(=O)c1ccccc1F)C(=O)OCC(=O)NC(=O)NC1CCCCC1	inactive: 27.8%	–
O=C(c1ccc(Cl)c(S(=O)(=O)N2CCOCC2)c1)N1CCCCC1	inactive: -2.84%	–
Cc1ccc(-n2nc(C)c3c(C)c(CCC(=O)Nc4ccc(CN5CCCC5)cc4)c(C)nc32)cc1	inactive: -13.4%	–
CC(C)(C)NC(=O)CSc1nc(O)cc(=O)[nH]1	inactive: 25.1%	–
COCCSc1nnc(NC(=O)C2CC(=O)N(CCc3ccc(F)cc3)C2)s1 (configuration not stated)	inactive: 13.5%	–
c1csc(CNc2nc(NCC3CCCCC3)c3sccc3n2)c1	inactive: 16.5%	–
CCCCC(CC)CNC(=O)CCS(=O)(=O)c1cccc2nonc12 (configuration not stated)	inactive: 22.2%	–
C/C(=N/NC(=O)CN1CCN(Cc2ccccc2)CC1)c1ccc([N+](=O)[O-])cc1	inactive: 8.71%	–
CCOC(=O)c1c(C)[nH]c(C(=O)OCC(=O)NC(C)(C)C)c1C	inactive: 0.971%	–
CCCCC(C(=O)NC1CCCC1)N(C(=O)c1snc(C(N)=O)c1N)c1ccc(C)cc1 (configuration not stated)	inactive: -15.7%	–
COC(=O)c1sccc1N(C)S(C)(=O)=O	inactive: -28.9%	–
Cc1ccc(NCc2ccccc2O)cc1C	inactive: 1.83%	–
CC1CCCCC1NC(=O)C1CCC(CNc2c(N3CCCCC3)c(=O)c2=O)CC1 (configuration not stated)	inactive: 23.7%	–
CCNC(=O)C1(C)CCCN1C(=O)c1ccc(F)c(Cl)c1 (configuration not stated)	inactive: 12.2%	–
O=C1CCCN2N=C(SCC(=O)Nc3cccc(C(F)(F)F)c3)SC2=N1	inactive: 8.92%	–
Cc1ccc(Cl)c2c1=NC(=O)C=2c1[nH]c(=S)[nH]c1O	inactive: 17%	–
COc1ccc(C2=NN(C(=O)CCCC(=O)O)C(c3cn(-c4ccccc4)nc3-c3ccccc3)C2)cc1 (configuration not stated)	inactive: -2.61%	–
COc1ccc(-c2ccc(CCC(=O)O)n2-c2ccc(O)cc2)cc1	inactive: -2.92%	–
O=c1c2ccccc2cnn1Cc1n[nH]c(=S)n1-c1ccccc1	inactive: -9.3%	–
COCCn1c(C)cc(C(=O)CSc2nc3nc(C)cc(C)n3n2)c1C	inactive: 7.8%	–

SMILES	growth rescue (activation)	Potency
CCN1CCCC1CNc1ncnc2c1[nH]c1ccc(Cl)cc12 (configuration not stated)	inactive: 25.5%	–
COCCNC(=O)CN1C(=O)NC2(CCOc3ccccc32)C1=O (configuration not stated)	inactive: -21.3%	–
O=[N+]([O-])c1cccc(S(=O)(=O)Nc2ccc(S(=O)(=O)Nc3nccs3)cc2)c1	inactive: -1.86%	–
COc1ccc(/C=N/NC(=O)CN2CCSCC2)cc1C	inactive: 20.1%	–
S=c1[nH]nc(COc2ccc(Cl)cc2)n1-c1ccccc1	inactive: 2.52%	–
COc1cc(CCC(=O)OCC(=O)Nc2ccc(F)cc2F)cc(OC)c1OC	inactive: 26.5%	–
COc1ccccc1NS(=O)(=O)c1cc(N)ccc1N1CCCCC1	inactive: -7.39%	–
O=C(C1=C(O)C(=O)N(Cc2ccco2)C1c1cccc([N+](=O)[O-])c1)c1ccco1 (configuration not stated)	inactive: 4.47%	–
CC(=O)Nc1ccc(NC(=O)CSc2nnc(-c3ccco3)o2)cc1	inactive: -5.52%	–
COCc1ccc(CN2CCCC(CO)(Cc3ccccc3)C2)o1 (configuration not stated)	inactive: 6.89%	–
CCN(CC)c1ccc(NC(=O)C2CC3CCC2C3)cc1 (configuration not stated)	inactive: 8.1%	–
Cc1ccc(CNC(=O)c2ccc(S(=O)(=O)Nc3c(C)n(C)n(-c4ccccc4)c3=O)cc2)cc1	inactive: -0.786%	–
CNC(=S)Nc1ccc(Cc2ccncc2)cc1	inactive: -0.546%	–
COc1ccc(-n2c(-c3ccc(Cl)cc3)c[n+]3c2CCc2ccccc2-3)cc1	inactive: -0.166%	–
NS(=O)(=O)c1ccc(CCNCC(=O)NC2CC2)cc1	inactive: 5.85%	–
Nc1cc(S(=O)(=O)Nc2ccc(Cl)cc2)ccc1N1CCOCC1	inactive: 8.59%	–
CN(C)C=NC(=O)c1cc(C(=O)c2ccc(Cl)cc2Cl)c[nH]1	inactive: -7.65%	–
O=C(O)c1nn(-c2cccc(Cl)c2)c(=O)cc1O	inactive: 8.09%	–
CCC(=O)N1CCN(c2cc(N3CCN(C)CC3)c(F)cc2[N+](=O)[O-])CC1	inactive: -0.0877%	–
